From PubChem BioAssay AID1347417 (National Center for Advancing Translational Sciences (NCATS), 2020)
Out of some 120,000 compounds screened, about 5,300 (4.4%) were called active. This list was built around the results that the source calls inconclusive (neither active nor inactive); the mix of calls is not that of the screen. The call rests on the fitted dose curve; in most records, active means well fitted inhibition curve with a large enough effect; inconclusive means small, poorly fitted or top-dose-only effect; inactive means no such curve, though single readings can be large or run the other way. Potencies beside an inconclusive call are fits to weak or partial responses and may not hold up.

Experiment: qHTS Primary assay for Inhibitors of Plasmodium falciparum Dd2 growth in vitro; further: nearly all actives have a fitted effect of over 65% in size;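 on activity, negative = inhibition: plate controls were DMSO vehicle for no effect and reference drug for full effect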
Conditions: P. falciparum Dd2 growth, SYBR Green, 72 h; activity, negative = inhibition: at 28.9 µM (top of the series) unless noted; series mostly up to 28.9 µM
Method in brief: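 Infected erythrocytes (Dd2, 0.3% parasitemia, 2.5% hematocrit final) are added to compound in RPMI-1640/Albumax II medium, grown 72 h at 37C in low oxygen, then lysed with saponin/Triton-X containing SYBR Green and read by fluorescence.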
Potency means the concentration at half of the fitted maximal effect; tags describe the fitted curve by direction and shape.

| SMILES | Potency | activity, negative = inhibition | outcome |
| --- | --- | --- | --- |
| COc1cc(CNC(C)Cn2nc(C)cc2C)ccc1OCCN1CCCC1 (stereo not given) | active: 3.55 µM |  |  |
| Cn1nc(-c2ccccc2)cc1[C@H]1CN2CC[C@H]1C[C@@H]2CNS(=O)(=O)c1cccs1 |  | inactive: -12.9% [at 44.1 µM] |  |
| COc1ccccc1Nc1ncc2c(n1)CN(C(=O)c1ccc(Oc3ccccc3)cc1)CCN2 | active: 8.91 µM |  |  |
| COc1ccc(-c2cc(C[C@H]3CNCC[C@H]3CC(=O)N3CCC(n4c(=O)[nH]c5ccccc54)CC3)no2)cc1 | inconclusive: 12.6 µM [inhibitor, single point] |  |  |
| Cc1ccc(-c2nn3c(=O)cc(CN4CCN(C(=O)Nc5cc(Cl)ccc5C)CC4)nc3s2)cc1 |  |  | inactive |
| O=C1NC2(CCN(Cc3ccc(OC(F)(F)F)cc3)C2)Oc2ccccc21 (stereo not given) | inconclusive: 14.1 µM [inhibitor, single point] |  |  |
| CCC(CC)C(=O)Nc1ccc2nc(SCC(=O)N3c4ccccc4CC3C)sc2c1 (stereo not given) | inconclusive: 11.2 µM [inhibitor, single point] |  |  |
| CCOC(=O)c1c(C)sc(-c2c(-c3ccc(OC)c(F)c3)[nH]c3c2c(=O)[nH]c(=O)n3C)c1O |  | inactive: 428% [at 5.79 µM] |  |
| CCCN(CC1CCOC1)C(=O)c1ccc(F)c(F)c1 (stereo not given) |  |  | inactive [at 5.79 µM] |
| COc1ccc(S(=O)(=O)N2CCC3(CC2)CC(N2CCOCC2)CCO3)cc1 (stereo not given) | inconclusive: 11.2 µM [inhibitor, partial curve, poor fit] |  |  |
| CC(C)c1ccc(Nc2ncnc3c2c(-c2ccccc2)cn3-c2ccccc2)cc1 | inconclusive: 17.8 µM [inhibitor, single point] |  |  |
| O=C(c1ccc2c(c1)N(C(=O)c1ccccc1)CC2)N1CCN(c2cccc(Cl)c2)CC1 | inconclusive: 0.316 µM [inhibitor, partial curve, poor fit] |  |  |
| CCCCOc1ccc(C2=NC(c3ccccc3)=Nc3ccc(OC)cc3N2)cc1 | inconclusive: 12.6 µM [inhibitor, single point] |  |  |
| O=C(NC[C@H]1Cn2cc(-c3ccccc3)nc2CO1)Nc1ccc(F)cc1 | inconclusive: 28.2 µM [inhibitor, single point] |  |  |
| Cc1ccc(CNC(=O)c2c(-c3cccc(Br)c3)noc2C)o1 | inconclusive: 20 µM [inhibitor, single point] |  |  |
| CC(Nc1ccc(-c2nc(-c3ccccn3)no2)cc1[N+](=O)[O-])c1ccccc1 (stereo not given) | inconclusive: 5.01 µM [inhibitor, partial curve, poor fit] |  |  |
| COC(=O)c1ccc(OCC2c3cc(OC)c(OC)cc3CCN2C(=O)c2ccccc2F)cc1 (stereo not given) | active: 10 µM |  |  |
| CCCCCn1c(=N)n(CC(O)COc2cccc(C)c2)c2ccccc21 (stereo not given) | active: 1 µM |  |  |
| COc1ccc(Cl)cc1N(C)C(=O)C(=O)Nc1ccc2nc3n(c(=O)c2c1)CCCCC3 | inconclusive: 17.8 µM [inhibitor, single point] |  |  |
| COc1ccc(NC(=O)CSc2nc(-c3ccccc3)nc3c2Cc2c(CO)cnc(C)c2O3)cc1Cl | inconclusive: 17.8 µM [inhibitor, single point] |  |  |
| O=C(NCc1ccccc1F)C1CCN(C(=O)c2ncn3c2COC(c2ccc(F)cc2)C3)CC1 (stereo not given) | inconclusive: 0.316 µM [inhibitor, full curve, poor fit] |  |  |
| Cc1ccc(S(=O)(=O)N2CCOC3(CNCCOC3)C2)cc1F (stereo not given) | inconclusive: 5.01 µM [inhibitor, partial curve, poor fit] |  |  |

| SMILES | Potency | activity, negative = inhibition | outcome |
| --- | --- | --- | --- |
| Cc1ccc(C)c(N2CCN(C(=O)C(C)n3c(C)c4cnn(-c5ccccc5)c(=O)c4c3C)CC2)c1 (stereo not given) | inconclusive: 17.8 µM [inhibitor, single point] |  |  |
| COc1ccccc1C1C=C(c2ccc(Cl)cc2)Nc2nc(-c3ccc(Cl)cc3)nn21 (stereo not given) | active: 2.82 µM |  |  |
| Cc1ccccc1CSc1nc2cccnc2n1Cc1ccc(C(=O)NCCc2cccs2)cc1 | inconclusive: 10 µM [inhibitor, single point] |  |  |
| CCCN(CCC)CC(O)Cn1cc(/C=C/C(=O)c2ccc(OCC)cc2)c2ccccc21 (stereo not given) | inconclusive: 1 µM [inhibitor, partial curve, poor fit] |  |  |
| COCCNC(=O)C[C@@H]1c2nc(NC(=O)CC(C)(C)C)sc2C[C@@H]2[C@](C)(CO)[C@H](O)CC[C@]21C | inconclusive: 12.6 µM [inhibitor, single point] |  |  |
| COc1cccc(NC(=O)c2ccc3c(c2)NC(C)(CCCCN2CCOCC2)CO3)c1 (stereo not given) | inconclusive: 0.891 µM [inhibitor, full curve, poor fit] |  |  |
| COCc1nc(C2CCN(C(=O)c3ccncc3)C2)no1 (stereo not given) |  | inactive: -9.32% |  |
| O=C(C1CCN(c2cnn(Cc3ccccc3)c(=O)c2)C1)N1CCCC1 (stereo not given) |  | inactive: -9.04% |  |
| CC[C@@]1(C(=O)O)C[C@H](C(=O)NCc2ccncc2)[C@H](c2ccc(OC)cc2)N1C | inconclusive: 8.91 µM [inhibitor, partial curve, poor fit] |  |  |
| CCn1cc(C(=O)N(C)Cc2ccccc2)c(=O)c2cc(S(=O)(=O)N3CCCCCC3)ccc21 | inconclusive: 7.94 µM [inhibitor, partial curve] |  |  |
| N#Cc1nccnc1N1CCN(C2CCC3(CCNCC3)CC2)CC1 |  | inactive: -18.5% |  |
| COCCN1CCCC1c1nc(C2CN(C(=O)NCc3ccco3)C2)no1 (stereo not given) | inconclusive: 5.01 µM [inhibitor, partial curve, poor fit] |  |  |
| O=C(NCC1CCOCC1)NC1CCCC1 | inconclusive: 17.8 µM [inhibitor, single point] |  |  |
| Cc1ccc(-c2nccn3cc(C(=O)NCc4nc5ccccc5n4C)nc23)cc1 | inconclusive: 10 µM [inhibitor, single point] |  |  |
| O=C(Cn1cccc1-c1nc(-c2ccc(F)cc2)no1)NC1CCCC1 | inconclusive: 8.91 µM [inhibitor, partial curve, poor fit] |  |  |
| Cc1ccc(NC(=O)N2CCC(Oc3ncccc3C(=O)N3CCCCC3)C2)cc1 (stereo not given) |  | inactive: -17% |  |
| Cc1nn(C)c(C)c1CN1C[C@@H](COCC2CC2)[C@H](c2ccccn2)C1 | inconclusive: 10 µM [inhibitor, single point] |  |  |
| O=C(NCc1ccccc1)O[C@H]1COCCN(c2nc3ccccc3s2)C1 |  | inactive: -3.33% [at 44.1 µM] |  |
| Fc1ccc(-c2noc([C@@H]3CCCN3Cc3ccc(C(F)(F)F)cc3)n2)nc1 | inconclusive: 11.2 µM [inhibitor, single point] |  |  |
| COc1ccc(C(=O)N[C@@H](Cc2ccccc2)C(=O)N2CCCOCCNC(=O)CC2)cc1 |  | inactive: 6.08% |  |
| Cc1ccc(-c2cc(O)c3c(c2)CN(C(=O)[C@@H](N)Cc2cnc[nH]2)CCO3)cc1 | inconclusive: 20 µM [inhibitor, single point] |  |  |
| O=C(NCCc1cccs1)c1cc2n(n1)CC(c1ccc3c(c1)OCO3)OC2 (stereo not given) |  |  | inactive |

| SMILES | Potency | activity, negative = inhibition | outcome |
| --- | --- | --- | --- |
| Cn1c(CN2CCOC[C@H]2c2ncc(-c3ccc(Cl)cc3)[nH]2)nc2ccccc21 | active: 10 µM |  |  |
| COc1ccc(-c2nn(-c3ccccc3)cc2CN2C[C@@H](C)O[C@@H](C)C2)c(F)c1 | inconclusive: 11.2 µM [inhibitor, single point] |  |  |
| COc1ccc(C(=O)N[C@@H]2C=C[C@@H](c3c(C)nn(-c4ccc(C)c(Cl)c4)c3C)C2)cc1 | active: 4.47 µM |  |  |
| C[C@H]1[C@@H]2[C@@H](O)C([C@H](C)C(=O)NCCN3CCCC3)CC[C@@]2(C)CC[C@@H]1NC(=O)CC(C)(C)C (stereo not given in full) | inconclusive: 2.24 µM [inhibitor, single point] |  |  |
| Cc1ccc(-n2c(C3CCN(C(=O)c4cc(C)cc(C)c4)CC3)n[nH]c2=O)cc1 |  |  | inactive |
| Cc1ccc(NC(=O)N2CCc3[nH]c4ccc(F)cc4c3C2)cc1C |  | inactive: -6.52% |  |
| CCCc1cc(C(=O)N2CC[C@@H]3[C@@H](CCC(=O)N3CC(C)C)C2)ccn1 |  | inactive: -1.96% |  |
| CC(=O)N1CCN(c2nc3c(s2)CC(C(=O)NCc2cccc(Cl)c2)CC3)CC1 (stereo not given) | inconclusive: 0.282 µM [inhibitor, full curve, poor fit] |  |  |
| COc1ccc(-n2nc(C)c([C@H]3C=C[C@@H](OC(=O)N[C@H](C)c4ccccc4)C3)c2C)cc1 | active: 7.94 µM |  |  |
| COCC(=O)N[C@H]1C[C@@H](Cc2cc(-c3ccccc3)on2)C1(C)C | active: 7.94 µM |  |  |
| CC(C)COc1cc(=O)n2c(c1C(=O)NC1CCCCC1)CCCCC2 |  | inactive: 1.39% |  |
| CCc1ccc(NC(=O)CN(Cc2ccccc2)S(=O)(=O)c2ccc3nc(C)sc3c2)cc1 | inconclusive: 11.2 µM [inhibitor, single point] |  |  |
| Cc1nn2c(c1-c1ccccc1OCc1ccccc1)N(C(=O)c1ccn(C)n1)CCC2 | inconclusive: 14.1 µM [inhibitor, single point] |  |  |
| Cc1nn(C)c(C)c1CNC(=O)C1CC(=O)N(c2n[nH]c3ccccc23)C1 (stereo not given) |  | inactive: -8.69% |  |
| Cc1cnc(C)n1C1CCN(S(=O)(=O)c2ccccc2)CC1 | inconclusive: 10 µM [inhibitor, single point] |  |  |
| CC1CCC(NC(=O)C2CCN(c3cc(C(F)(F)F)ncn3)CC2)CC1 (stereo not given) |  | inactive: -0.7% |  |
| Cc1ncsc1C(=O)N1CCNc2cnc(Nc3cccc(F)c3)nc2C1 | inconclusive: 31.6 µM [inhibitor, single point] |  |  |
| N#Cc1cccc(NC(=O)c2ccc3c(c2)N(Cc2cccc(Cl)c2)C(=O)c2ccccc2S3(=O)=O)c1 | active: 2.24 µM |  |  |
| CNC(=O)N1CCC(C2CCN(C(=O)CCCc3ccccc3)C2)CC1 (stereo not given) |  | inactive: -20.8% |  |
| CCOc1ccc(OCC)c(NC(=O)C2CCN(c3cnccn3)CC2)c1 | inconclusive: 10 µM [inhibitor, single point] |  |  |
| COc1cccc(-n2c(=O)c3sc4ccccc4c3n(CC(=O)Nc3ccccc3C)c2=O)c1 | inconclusive: 10 µM [inhibitor, single point] |  |  |
